Results reported in patent publication US20100324829A1, “METHOD OF SELECTING HLA-DP4 LIGANDS AND THE APPLICATIONS THEREOF” (priority 2001, published 2010).

Target: T1, DP401 encoded by the DPA1*0103/DPB1*0401 allele (Homo sapiens, UniProt P04440+P20036)
T1 sequence (P20036 29-260): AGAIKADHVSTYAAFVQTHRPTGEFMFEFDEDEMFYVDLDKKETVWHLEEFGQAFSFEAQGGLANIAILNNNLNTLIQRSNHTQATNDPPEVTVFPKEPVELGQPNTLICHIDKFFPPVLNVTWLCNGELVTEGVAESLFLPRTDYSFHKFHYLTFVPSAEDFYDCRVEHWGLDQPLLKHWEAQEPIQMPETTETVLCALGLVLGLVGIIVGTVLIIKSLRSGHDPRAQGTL
T1 sequence (P04440 30-258): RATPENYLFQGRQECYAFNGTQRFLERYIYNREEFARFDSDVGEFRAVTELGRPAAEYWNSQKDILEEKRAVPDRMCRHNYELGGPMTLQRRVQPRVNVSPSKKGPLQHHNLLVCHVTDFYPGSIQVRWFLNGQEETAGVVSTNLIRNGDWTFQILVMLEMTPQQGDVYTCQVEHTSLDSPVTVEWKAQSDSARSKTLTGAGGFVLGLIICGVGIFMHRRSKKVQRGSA
Conditions: pH 5, 24 h at 37° C.

IAFNSGMEPGVVAEKV [bMT 451-466]
RF = fluorescence value in the presence of DP4/fluorescence value in the absence of DP4 (biotinylated peptide 10^−6 M): 5.5 | RF = fluorescence value in the presence of DP4/fluorescence value in the absence of DP4 (biotinylated peptide 10^−7 M): 4 | RF = fluorescence value in the presence of DP4/fluorescence value in the absence of DP4 (biotinylated peptide 10^−8 M): 2

AAYAAAKAAALAA [bYKL]
RF = fluorescence value in the presence of DP4/fluorescence value in the absence of DP4 (biotinylated peptide 10^−6 M): 4.8 | RF = fluorescence value in the presence of DP4/fluorescence value in the absence of DP4 (biotinylated peptide 10^−7 M): 3.2 | RF = fluorescence value in the presence of DP4/fluorescence value in the absence of DP4 (biotinylated peptide 10^−8 M): 3

GVQIVRQIRSGERFLKIWSQ [bNS-p2]
RF = fluorescence value in the presence of DP4/fluorescence value in the absence of DP4 (biotinylated peptide 10^−6 M): 1 | RF = fluorescence value in the presence of DP4/fluorescence value in the absence of DP4 (biotinylated peptide 10^−7 M): 4.2 | RF = fluorescence value in the presence of DP4/fluorescence value in the absence of DP4 (biotinylated peptide 10^−8 M): 7.8

FNNFTVSFWLRVPKVSA [bTT 947-963]
RF = fluorescence value in the presence of DP4/fluorescence value in the absence of DP4 (biotinylated peptide 10^−6 M): 1.7 | RF = fluorescence value in the presence of DP4/fluorescence value in the absence of DP4 (biotinylated peptide 10^−7 M): 3.6 | RF = fluorescence value in the presence of DP4/fluorescence value in the absence of DP4 (biotinylated peptide 10^−8 M): 2.7

GPGAPADVQYDLYLNVANRR [bIL3 127-146]
RF = fluorescence value in the presence of DP4/fluorescence value in the absence of DP4 (biotinylated peptide 10^−6 M): 10 | RF = fluorescence value in the presence of DP4/fluorescence value in the absence of DP4 (biotinylated peptide 10^−7 M): 20 | RF = fluorescence value in the presence of DP4/fluorescence value in the absence of DP4 (biotinylated peptide 10^−8 M): 17.3

RELWWVFYAGDRALEEPHAE [bUL21 283-302]
RF = fluorescence value in the presence of DP4/fluorescence value in the absence of DP4 (biotinylated peptide 10^−6 M): 8.3 | RF = fluorescence value in the presence of DP4/fluorescence value in the absence of DP4 (biotinylated peptide 10^−7 M): 13.3 | RF = fluorescence value in the presence of DP4/fluorescence value in the absence of DP4 (biotinylated peptide 10^−8 M): 10.1

PKYVKQNTLKLAT [bHA 306-318]
RF = fluorescence value in the presence of DP4/fluorescence value in the absence of DP4 (biotinylated peptide 10^−6 M): 4.9 | RF = fluorescence value in the presence of DP4/fluorescence value in the absence of DP4 (biotinylated peptide 10^−7 M): 4.7 | RF = fluorescence value in the presence of DP4/fluorescence value in the absence of DP4 (biotinylated peptide 10^−8 M): 2.7

Read-outs that look alike come from different tables or passages of the source.
